Test results taken from PubChem BioAssay AID624173 (National Center for Advancing Translational Sciences (NCATS), 2012).
About 490 (0.12%) of roughly 410,000 compounds were called active. Inconclusive results, whose numbers are uncertain, are shown with a selection of clear calls. Calls come from the whole dose curve; as a rule, active = well fitted inhibition curve with a large enough effect; inconclusive = small, poorly fitted or top-dose-only effect; inactive = flat fitted curve, though single readings scatter. Potencies beside an inconclusive call are fits to weak or partial responses and may not hold up.

Target: pyruvate kinase (Trypanosoma brucei) (UniProt Q57TT1)
Test: qHTS of Trypanosoma Brucei Inhibitors; note: nearly all actives have a fitted effect of over 50% in size
Conditions: TbPYK enzyme, Kinase-Glo Plus ATP luminescence, 45 min; series mostly up to 76.8 µM
Outline: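 T. brucei PYK with substrate was exposed to pin-transferred compounds across a concentration series, then started with 130 uM ADP (final). After 45 min at room temperature, Kinase-Glo Plus luminescence was read, normalized and curve-fitted.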
Potency is the fitted concentration of half-maximal effect; tags give direction and shape of the fitted curve.

SMILES | Potency
COc1cc(C2NC(=S)NC(O)(C(F)(F)F)C2C(=O)c2cccs2)cc(OC)c1O (centres undefined) | inconclusive: 11.2 µM [inhibitor, partial curve, poor fit]
CCN(CC(=O)NC(C)C)C(=O)c1ccc(S(=O)(=O)N(C)c2ccccc2OC)cc1 | inconclusive: 35.5 µM [inhibitor, single point]
COc1ccc(N2C(=O)CS(=O)C(c3ccccc3)C2=O)cc1 (centres undefined) | inconclusive: 35.5 µM [inhibitor, partial curve, poor fit]
CCN1C(=O)/C(=C/C=C2/Sc3ccc4ccccc4c3N2CCO)SC1=S | inconclusive: 5.01 µM [inhibitor, partial curve, poor fit]
O=C1NC(=O)N(c2ccc(F)cc2)C(=O)/C1=C/c1ccc(N2CCOCC2)cc1 | inconclusive: 31.6 µM [inhibitor, partial curve]
COC(=O)c1cc(C)nc(Sc2ccccc2N)n1 | active: 8.91 µM
CCCCn1c(=O)c2ccccc2n2c(=S)[nH]nc12 | inconclusive: 15.8 µM [inhibitor, partial curve, poor fit]
O=C(NC1CCSc2ccccc21)c1cc(S(=O)(=O)N2CCOCC2)ccc1F (centres undefined) | inactive
Cc1ccc(C(=O)O/N=C(\N)c2ccccn2)c(Cl)c1 | active: 14.1 µM
Cc1ccc(C)c(NC(=O)CCCCCCCCCCC2COCCO2)c1 (centres undefined) | inactive
CC1CCCC(C)N1c1nnc(N)s1 (centres undefined) | inconclusive: 14.1 µM [inhibitor, partial curve]
O=C1NC(=O)C(=Cc2cc3c(cc2[N+](=O)[O-])OCO3)C(=O)N1 | inconclusive: 20 µM [inhibitor, partial curve]
CC(=O)N(c1ccc2oc(=O)sc2c1)S(=O)(=O)c1cccs1 | inconclusive: 39.8 µM [inhibitor, partial curve, poor fit]
COc1ccccc1NC(=O)C(=O)Nc1ccc2c(c1)N(C(=O)C1CC1)CCC2 | inconclusive: 1 µM [inhibitor, full curve, poor fit]
Fc1cccc(F)c1/C=C/c1ccc2ccccc2n1 | inconclusive: 39.8 µM [inhibitor, partial curve, poor fit]
COc1ccc(N(CC(=O)NCCSCc2ccco2)S(=O)(=O)c2ccccc2)cc1Cl | inactive
Cc1ccccc1S(=O)(=O)Cc1ccc(C(=O)NCc2ccco2)o1 | inconclusive: 35.5 µM [inhibitor, single point]
Cc1ccc(C2C(C#N)=C(N)Oc3n[nH]c(-c4ccccc4)c32)o1 (centres undefined) | inconclusive: 50.1 µM [inhibitor, single point]
O=c1[nH]cnc2c1ncn2C1OC(CO)CC1F (centres undefined) | inactive
O=[N+]([O-])c1cccnc1SCc1c(F)cccc1Cl | inactive
Cc1cc(C)c(-n2[nH]nnc2=S)c(C)c1 | inconclusive: 39.8 µM [inhibitor, partial curve, poor fit]
COc1ccc(-c2csc(N3CCOCC3)n2)cc1OC | inconclusive: 14.1 µM [inhibitor, partial curve, poor fit]
CC(Oc1ccccc1Cl)C(=O)Nc1ccc(S(=O)(=O)N2CCN(C)CC2)cc1 (centres undefined) | inconclusive: 28.2 µM [inhibitor, partial curve]

SMILES | Potency
c1ccc2[nH]c(-c3ccc4c(c3)OCO4)nc2c1 | inconclusive: 28.2 µM [inhibitor, partial curve, poor fit]
C/C=C/COc1nc2c(c(=O)n(C)c(=O)n2C)n1C | inconclusive: 6.31 µM [inhibitor, full curve, poor fit]
COc1ccc2c(c1)S/C(=C\C(=O)c1ccncc1)N2C | inconclusive: 25.1 µM [inhibitor, partial curve]
Cc1ccc(S(=O)(=O)c2nc(C(C)(C)C)oc2N2CCOCC2)cc1 | inconclusive: 11.2 µM [inhibitor, partial curve, poor fit]
CC1(C)CC(=O)C(C(C2=C(O)CC(C)(C)CC2=O)c2cccs2)C(=O)C1 (centres undefined) | inconclusive: 25.1 µM [inhibitor, partial curve]
O=C(Nc1cc(S(=O)(=O)N2CCOCC2)ccc1N1CCCC1)c1ccc2c(c1)S(=O)(=O)c1ccccc1C2=O | inconclusive: 44.7 µM [inhibitor, partial curve, poor fit]
O=C(c1ccco1)N1CCN(C(=O)c2cc(-c3ccccn3)nc3ccc(Cl)cc23)CC1 | inconclusive: 28.2 µM [inhibitor, partial curve]
CCCCN1CNC(=S)N(CCc2ccccc2)C1 | inactive
NC(Cc1ccc(C(F)(F)F)cc1)c1csc(Nc2cc(NCc3ccco3)ncn2)n1 (centres undefined) | inactive
Cc1cc(NC(=O)CSC2=NS(=O)(=O)c3cc(F)ccc3N2)no1 | inactive
Cc1c(C(=O)OCC(=O)N2c3ccccc3CC2C)oc2ccccc12 (centres undefined) | inactive
CCCN1C(=O)/C(=c2\sc3nc(=O)c(Cc4ccc(C)cc4)nn3c2=O)c2ccccc21 | inconclusive: 15.8 µM [inhibitor, partial curve]
COCCn1c(C)cc(C2=NNC(=Nc3ccccc3F)SC2)c1C | inconclusive: 11.2 µM [inhibitor, partial curve]
CCOc1ccc(C(=O)Nc2cc(C)ccn2)cc1 | inconclusive: 35.5 µM [inhibitor, partial curve, poor fit]
CCCCN(C(=O)C1=CC=CN2CCS(=O)(=O)N=C12)c1ccccc1 | inactive
S=c1[nH]c2ccccc2n1CCc1ccncc1 | inconclusive: 11.2 µM [inhibitor, partial curve, poor fit]
COc1ccc2[nH]c(=O)c(CNc3ccc(C)cc3C)cc2c1 | inactive
N#CC1=C2SCN(C3CCCCC3)CN2C(=O)CC1c1ccc(F)cc1 (centres undefined) | inconclusive: 22.4 µM [inhibitor, partial curve, poor fit]
COc1cccc(C(=O)Nc2ccc(F)c(F)c2F)c1 | inactive
C/C(=N\Nc1nc(-c2ccccc2)cs1)c1cccs1 | inconclusive: 25.1 µM [inhibitor, partial curve, poor fit]
CCC1C(=O)n2nc(-c3ccccc3)cc2N=C1C (centres undefined) | inactive
CCC/C=C1/CCCOC(C(=O)NCc2ccc(C)o2)(C(F)(F)F)C1 (centres undefined) | inconclusive: 28.2 µM [inhibitor, partial curve, poor fit]
COc1ccc(/C=C2/CCC(CN3CCOCC3)C2=O)cc1 (centres undefined) | inconclusive: 31.6 µM [inhibitor, partial curve]

SMILES | Potency
O=C1NC(=O)C(=Cc2ccc(SC3CCCCC3)o2)C(=O)N1 | inconclusive: 31.6 µM [inhibitor, partial curve]
COc1ccc(N2C3=C(CC4=C2CC(C)(C)CC4=O)C(=O)CC(C)(C)C3)cc1 | inconclusive: 31.6 µM [inhibitor, single point]
CCOc1ccc(OCC(=O)c2c(O)c3ccccc3oc2=O)cc1 | inconclusive: 14.1 µM [inhibitor, partial curve]
Cc1ccc(/C=N/NC(=O)c2ccncc2)o1 | inactive
Cc1cc(C=C2C(=O)N(C)C(=S)N(C)C2=O)c(C)n1-c1ccncc1 | inconclusive: 39.8 µM [inhibitor, single point]
COc1cc2c(cc1OC)C(c1c(O)n(CCc3ccccc3)c(=S)[nH]c1=O)NCC2 (centres undefined) | inactive
O=c1[nH]c(SCc2cccc(Cl)c2)nc2c1CCCC2 | inconclusive: 50.1 µM [inhibitor, single point]
CCc1nn(C(C)C(=O)NCc2ccc(Cl)cc2)c(=O)c2cc3occc3n12 (centres undefined) | inactive
S=c1[nH]nc(Nc2ccc(Cl)cc2)s1 | inconclusive: 2.82 µM [inhibitor, full curve, poor fit]
CC(C)(C)C1=Nn2c(nnc2-c2n[nH]c3c2CCC3)SC1 | inconclusive: 31.6 µM [inhibitor, partial curve]
CC(C)S(=O)(=O)C1=NSC2=NC(=O)/C(=C\c3ccc(-c4cccc(C(=O)O)c4)o3)C(=N)N21 | inconclusive: 50.1 µM [inhibitor, single point]
O=C(/C=C/Nc1ccc(Oc2ccccc2)cc1)c1ccco1 | inconclusive: 25.1 µM [inhibitor, partial curve, poor fit]
O=c1cc(-c2ccccc2)oc2ccc3ccccc3c12 | inconclusive: 31.6 µM [inhibitor, partial curve, poor fit]
Clc1nssc1=Nc1nncs1 | active: 5.01 µM
O=c1c2ccccc2[nH]c2ccc(O)cc12 | inconclusive: 3.16 µM [inhibitor, full curve, poor fit]
Cc1ccc(SC[C@H](c2ccccc2)N2CCN(C)CCC2=O)cc1 | inactive
O=C(N/N=C/c1cccc([N+](=O)[O-])c1)c1c[nH]c2ccccc12 | inactive
CCOc1ccc(/C=N/OCC(=O)NCc2ccco2)cc1 | inconclusive: 28.2 µM [inhibitor, single point]
Cc1ccc(-c2nnn(CCC(=O)NC3CCCC3)n2)cc1 | inactive
CC1=NN(c2ccc(C(=O)O)cc2)C(=O)/C1=C\c1ccc(OC(=O)c2cccs2)cc1 | inconclusive: 39.8 µM [inhibitor, single point]
CCOc1ccc(-n2cc(C(=O)NC(C)C)c3cc(OC)c(OC)cc3c2=O)cc1 | inconclusive: 35.5 µM [inhibitor, single point]
COc1ccc(Cl)cc1-c1n[nH]c(=S)n1C | inconclusive: 28.2 µM [inhibitor, partial curve]
CC(=O)Nc1ccc(Sc2ccc([N+](=O)[O-])o2)cc1 | inactive
